# Experimental data published in PMC5836133.
# The other results are listed elsewhere or left out. At the low end of the ranking the order means little.
# System: T1, GST-NbGlk1(82-244)
# T1 sequence: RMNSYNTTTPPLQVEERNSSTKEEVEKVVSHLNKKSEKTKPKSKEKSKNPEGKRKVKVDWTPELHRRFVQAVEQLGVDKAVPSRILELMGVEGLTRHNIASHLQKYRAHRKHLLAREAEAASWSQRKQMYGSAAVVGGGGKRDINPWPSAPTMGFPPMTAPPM
# Assay: protein-binding microarray;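 note: rank-based score ranging −0.5 to +0.5 with E above 0.45 taken as significant binding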
# Details: NbGlk1 is a Golden2-like transcription factor of Nicotiana benthamiana; high values mean tight binding; most listed sequences are background and not binding sites; double strand, one strand shown
row,Sequence,binding signal [E-score]
1,CAATACTC,0.0245
2,AGATAGCC,-0.0206
3,ATCTTCCA,0.319
4,ACTGGAAC,-0.119
5,ACTAACAG,0.0406
6,ACTTAACG,0.049
7,AAACTTCG,-0.0377
8,CACAAATG,-0.0975
9,AGAAGTCA,-0.197
10,ATGGTCTA,-0.229
11,CAACATTG,0.0251
12,ACTGTTAC,0.0719
13,AAGGAAGC,-0.0753
14,ATAGCGAC,0.0028
15,AGTAGGGG,-0.124
16,AAGGTGAA,-0.0576
17,AGACTAAT,-0.0968
18,AAGATCGC,0.398
19,AGGCGCGA,0.0558
20,ATTGGACG,-0.111
21,AACCGCGC,0.0954
22,ATCCCCAG,0.193
23,AATTCGCT,0.142
24,AGAACACA,-0.133
25,ACCGGAGC,-0.185

row,Sequence,binding signal [E-score]
1,ACTTTATA,0.0901
2,AAAAGTTC,-0.1
3,ACTCTCCC,-0.196
4,AACTAATT,0.117
5,ACCCAGTA,-0.111
6,CAGCGTGA,-0.111
7,ACAGCACT,-0.0686
8,CAAGCGCA,-0.0624
9,ATTATTGG,0.111
10,AAGACCTT,-0.167
11,ATCGTCGC,0.147
12,ATCAGAGG,-0.0212
13,AGCCGCAA,-0.0939
14,AGTCGTTG,-0.13
15,AATCACCT,0.176
16,AGTTAAGG,-0.171
17,AATGTTCA,-0.0383
18,CAAGACAA,-0.0408
19,CACAGGTG,-0.304
20,ACTCCAAG,-0.148
21,AACAAACT,-0.0988
22,AAACGATA,0.137
23,AAAAGTGG,0.0621
24,CACCACTA,-0.0816
25,ACGAGTGA,0.0649

row,Sequence,binding signal [E-score]
1,AGATAGCG,0.251
2,AGTCCCTC,-0.217
3,AACCCAGC,-0.225
4,ATCAGCTC,-0.00425
5,AAAGCTTG,0.0567
6,AATTCAGG,0.109
7,CAAGGGTC,-0.165
8,AGCTTATG,-0.167
9,AGTGAGGC,-0.187
10,AGCTTACG,-0.193
11,CAATACCC,-0.0229
12,ACGCTAAA,0.0618
13,AGATCCTG,0.369
14,AAGACAGA,0.0232
15,ACTCCTAT,-0.0522
16,CAATCGTG,0.208
17,ACCGACGC,-0.233
18,ATAGACGG,-0.0538
19,CAGAAACG,-0.057
20,AAACTGCC,-0.157
21,AACGCGCG,0.0157
22,ACCAAGCA,-0.00329
23,AAGTCCCT,-0.212
24,AAAAACAC,-0.0464
25,AAAGCTAC,-0.175

row,Sequence,binding signal [E-score]
1,ATACGAGG,-0.0346
2,ACGTTGCT,-0.0958
3,AGCGCTGC,-0.15
4,AAGCCTTG,-0.226
5,ATATTGTC,0.261
6,ACCAACCA,-0.177
7,ATGGAAAT,0.335
8,CACAAGAA,-0.000272
9,AATGAATC,0.262
10,AGTGGTAT,0.109
11,AGGGGCAC,-0.239
12,AGTGATCA,-0.0302
13,AGGAAGTC,-0.315
14,AAGCGTCG,-0.121
15,ACGATTGG,0.0657
16,ATTGATCA,-0.0208
17,ACCCTCCC,-0.167
18,AGAGTACG,-0.15
19,AGCAAGAG,-0.078
20,AGTAAATA,0.161
21,ACCGCTAC,-0.258
22,AATATGAA,0.279
23,AAGCTGCC,-0.268
24,ATATGGCA,0.176
25,ACGGGAAG,-0.211

row,Sequence,binding signal [E-score]
1,CAGACGGG,-0.188
2,CACCTAAC,-0.0187
3,ACAGCCGC,-0.291
4,ACGTATGC,-0.14
5,ACGAGCAA,-0.0637
6,AAGAATTC,0.183
7,AATGCGGA,-0.049
8,AACTCCAG,-0.181
9,ATAGTTTC,0.0303
10,CACGTCTC,-0.233
11,AATTCTGA,0.167
12,AGGACGAA,-0.178
13,CACAACCA,-0.0443
14,AGCGACTA,-0.125
15,AATTAGGT,0.00171
16,AACACGGA,0.0655
17,CAGCATTC,-0.195
18,AAGCGTAC,-0.193
19,AATAACCG,0.0784
20,AATAGTGT,-0.0793
21,ACTCTAGG,-0.124
22,AGCAAACT,-0.0756
23,CACATGCC,-0.136
24,CAGCGATG,-0.144
25,AGGGCGTC,-0.3

row,Sequence,binding signal [E-score]
1,ATGTTTTG,-0.00544
2,AACTTGTC,-0.169
3,ACCGCGGT,-0.211
4,AAGCTACA,-0.0722
5,ATTCTGCC,0.175
6,ATCTCGAC,0.34
7,AACCCGCC,-0.0801
8,AGCCTGTC,-0.182
9,ACCATCAG,-0.128
10,AAGTAGAA,0.0239
11,AGTCGAGG,-0.284
12,AGGAGCAA,-0.155
13,AGCAAGCT,-0.296
14,ATAACACA,0.128
15,AGCAGAAC,0.0215
16,AAGGATAG,-0.0238
17,AGCCGGGG,-0.218
18,CAGCACGG,-0.128
19,ATCGGGTG,-0.0118
20,AAATAATT,0.159
21,ATAGGTGG,-0.154
22,CAAGTTGA,-0.0184
23,ATAATGAA,0.101
24,ACACCTTG,-0.167
25,AAACCTGC,-0.17

row,Sequence,binding signal [E-score]
1,AGTGCATA,-0.0501
2,ACGACTTC,-0.126
3,AGGCTAAC,-0.088
4,AATAGCGT,0.00745
5,AGGTCCCG,-0.313
6,AGTTTTCC,0.0285
7,AAAAGTAA,0.0249
8,ACAAATTA,0.168
9,CAAAAATC,0.399
10,AATCTACT,0.406
11,CAATGTAA,0.159
12,AACGGCGT,-0.134
13,ATGACGCA,-0.0979
14,ACAAACGC,-0.0382
15,CAGCCTCA,-0.105
16,ATCTTGTA,0.28
17,ACGACGTC,-0.0743
18,ATGTATAG,-0.0116
19,ACTTCATG,-0.201
20,ATATTATG,0.166
21,AATACTGA,0.171
22,ACCATAAC,0.00142
